Experimental data: PubChem BioAssay (NCATS)
Records with an inconclusive call do not appear. The call rests on the fitted dose curve; in most records, active means well fitted cell-killing curve with a large enough effect; inconclusive means small, poorly fitted or top-dose-only effect; inactive means no such curve, though single readings can be large or run the other way. The source holds several records for some structures; these can differ, active in one and inactive in another. Certain results were filed several times, with different values. This list holds those alone. The source may hold further records. Values that stand side by side repeat one measurement (runs, samples, wells, individuals or studies). Brackets tell where a record comes from. Letters count within one entry.

Experiment: qHTS of pediatric cancer cell lines to identify multiple opportunities for drug repurposing: Primary screen for LAN-5 cells (AID 1347100)
Conditions: LAN-5 neuroblastoma viability, CellTiter-Glo luminescence, 48 h; series mostly up to 46 µM
Description: Drug repurposing or repositioning has been offered as a strategy for drug development in oncology programs. This approach has special potential for childhood cancers and other rare or orphan diseases, where the expected return on new drug development has been a disincentive to pharmaceuticals.
In this project we exploit the poly-pharmacology of drugs to discover new indications via phenotypic screening of a panel of 19 well-characterized cell lines derived from solid tumors seen in children and adolescents. The goal is to identify approved drugs with previously unrecognized anticancer properties that has the potential to reveal new mechanisms and biological processes involved in carcinogenesis or drug resistance. We employed a titration-based paradigm (quantitative high-throughput screening or qHTS), where all compounds were tested at multiple concentrations for their effect on cell viability. Concentration-response curves (CRCs) were derived directly from the primary screen, and both potency and efficacy values were used to identify compounds with robust bioactivity profiles. We screened the NIH Chemical Genomics Center (NCGC) Pharmaceutical Collection (NPC) and Mechanism Interrogation Plate (MIPE) small molecule collections of approved and investigational compounds against these cell lines; and measured metabolically active cells after 48 hours of compound treatment as a proxy for cell viability.
Assay Submitter: Nathalia J. Martinez, National Center for Advancing Translational Sciences, National Institutes of Health, Rockville, MD, USA; email: natalia.martinez@nih.gov
[1] Shen, M et al. Quantitative high-throughput phenotypic screening of pediatric cancer cell lines identifies multiple opportunities for drug repurposing. Oncotarget 2017 Dec 19;9(4):4758-4772. PMID 29435139.
The cells were obtained from University of North Carolina (UNC), Pediatric Preclinical Testing Program (PPT), and Coriell Institute (CI).
qHTS cell viability assay:
Cells were assayed in growth media at a density of 500-1,000 cells/well. Five microliters of cells were dispensed into 1,536-well, white, solid-bottom, TC-treated plates (Greiner Bio One) using a multidrop dispenser and incubated at 37 degrees C, 5% CO2, under a humidified atmosphere for 5 hours. Twenty-three nanoliters of compounds and controls (neutral control DMSO or positive control bortezomib at final concentration of 2.3 µM) were subsequently transferred by Kalypsys pintool. For primary screens, the MIPE collection was tested at 11-point dilutions (final concentrations range from 0.78 nM to 46 µM) and the NPC collection at 8-point dilutions (final concentrations range from 0.59 nM to 46 µM). Compounds tested in follow-up screens were assayed at 11-point dilutions. Cells were incubated for 48 hours, followed by addition of 3 µL of CellTiter-Glo (Promega). After a 15 min incubation at room temperature, samples were analyzed for luminescence intensity using a ViewLux High-throughput CCD imager equipped with clear filters.
Potency means the concentration at half of the fitted maximal effect.

| SMILES | Potency |
| --- | --- |
| CC(C)Cn1cnc2c(N)nc3ccccc3c21 | inactive [sample A] and active: 3.72 µM [sample B] |
| COc1cc2c(Nc3ccc(Br)cc3F)ncnc2cc1OCC1CCN(C)CC1 | active: 18.7 µM [sample A] and inactive [sample B] |
| CCOC(=O)[C@H](CCc1ccccc1)N[C@H]1CS[C@H](c2cccs2)CN(CC(=O)O)C1=O | active: 1.18 µM [sample A] and inactive [sample B] |
| COc1cnc(NS(=O)(=O)c2ccc(N)cc2)nc1 | inactive [sample A] and active: 14.8 µM [sample B] |
| COc1ccc(-c2ccc3cc(C(=O)O)ccc3c2)cc1C12CC3CC(CC(C3)C1)C2 | active: 3.76 µM [sample A] and inactive [sample B] |
| COc1ccc(C(=O)CC(=O)c2ccc(C(C)(C)C)cc2)cc1 | inactive [sample A] and active: 264 nM [sample B] |
| Clc1ccccc1CN1CCc2sccc2C1 | active: 1.48 µM [sample A] and inactive [sample B] |
| Cc1nnc(NS(=O)(=O)c2ccc(N)cc2)s1 | inactive [sample A] and active: 2.64 µM [sample B] |
| Cc1c(-c2ccc(O)cc2)n(Cc2ccc(OCCN3CCCCCC3)cc2)c2ccc(O)cc12 | inactive [sample A] and active: 21.1 µM [sample B] |
| Nc1[nH]c(=O)ncc1F | inactive [sample A] and active: 20.9 µM [sample B] |
